Assay results as given in article PMC4336329 (PLoS ONE, 2015).
In all, about 310,000 compounds went through this assay and about 14,000 (4.5%) showed an effect of 50% or more. Effects have a minus sign here. Some of the results follow.

target: human ether-à-go-go-related gene (hERG) potassium channel (human, UniProt Q12809); assay: primary screen, population patch clamp on CHO cells stably expressing hERG
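Also: peak tail current of the secondary pulse compared with the same well before compound.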

Sequence of human ether-à-go-go-related gene (hERG) potassium channel (Q12809 whole entry, looked up): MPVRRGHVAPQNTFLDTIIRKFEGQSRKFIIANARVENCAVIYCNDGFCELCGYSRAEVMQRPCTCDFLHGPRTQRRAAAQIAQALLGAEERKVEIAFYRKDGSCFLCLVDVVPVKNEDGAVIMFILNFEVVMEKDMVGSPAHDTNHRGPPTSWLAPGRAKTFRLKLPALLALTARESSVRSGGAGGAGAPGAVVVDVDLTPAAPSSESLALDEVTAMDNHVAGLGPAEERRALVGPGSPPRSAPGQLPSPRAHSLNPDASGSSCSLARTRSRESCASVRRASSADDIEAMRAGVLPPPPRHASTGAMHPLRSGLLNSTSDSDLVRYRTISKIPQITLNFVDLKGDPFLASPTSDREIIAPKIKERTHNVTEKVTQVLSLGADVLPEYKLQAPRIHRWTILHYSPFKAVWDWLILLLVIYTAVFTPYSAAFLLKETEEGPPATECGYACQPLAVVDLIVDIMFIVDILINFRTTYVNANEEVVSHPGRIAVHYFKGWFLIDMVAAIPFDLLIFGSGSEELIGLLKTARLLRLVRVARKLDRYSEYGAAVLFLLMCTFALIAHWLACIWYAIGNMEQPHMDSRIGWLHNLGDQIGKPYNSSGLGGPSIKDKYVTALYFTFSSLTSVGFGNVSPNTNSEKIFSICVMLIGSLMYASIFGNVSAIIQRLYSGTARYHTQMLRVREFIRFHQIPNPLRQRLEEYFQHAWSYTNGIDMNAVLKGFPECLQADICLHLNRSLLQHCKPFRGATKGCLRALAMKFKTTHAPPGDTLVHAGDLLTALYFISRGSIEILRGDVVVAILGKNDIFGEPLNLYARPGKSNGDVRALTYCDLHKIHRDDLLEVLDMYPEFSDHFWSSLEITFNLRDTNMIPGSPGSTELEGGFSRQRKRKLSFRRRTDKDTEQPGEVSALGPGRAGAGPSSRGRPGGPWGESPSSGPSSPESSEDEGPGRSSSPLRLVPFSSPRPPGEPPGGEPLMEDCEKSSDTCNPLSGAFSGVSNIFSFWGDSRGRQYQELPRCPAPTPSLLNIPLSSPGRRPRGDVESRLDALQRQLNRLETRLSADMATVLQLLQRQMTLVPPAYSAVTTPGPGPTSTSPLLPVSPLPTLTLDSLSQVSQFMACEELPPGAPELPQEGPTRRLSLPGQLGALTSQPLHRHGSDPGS

Row | Compound | hERG current change (%, negative = inhibition) at 10uM [%]
1 | COc1ccc(OC)c(C(=O)NC2CC(C)(C)Cc3c2cnn3-c2ccccc2)c1 (stereo not shown) | -19.5
2 | CC(CCO)Nc1nc2c([nH]1)c(=O)n(C)c(=O)n2C (stereo not shown) | 10.5
3 | Cc1cc(C)cc(NC(=O)C2CCN(S(C)(=O)=O)CC2)c1 | -6.86
4 | O=C(NCCOc1ccccc1Cl)C(=O)NCCOc1ccccc1Cl | 3.16
5 | NC(=O)c1ccc2c(=O)c(O)c(-c3cc(Cl)c(N)c(Cl)c3)[nH]c2c1 | -5.41
6 | CCOc1ccc(CN2CCNC(=O)C2CC(=O)NCCCOc2cccnc2)cc1 (stereo not shown) | 12
7 | Cc1ccc(-n2nc3c(N4CCC(C(=O)N5CCCCCC5)CC4)nnc(C)c3c2C)cc1 | -68.7
8 | O=C(NNC(=O)c1ccccc1O)c1ccc(Cl)cc1 | 12
9 | O=C1N[C@H](Cc2ccccc2)C(=O)N[C@H]1Cc1cn(S(=O)(=O)c2ccccc2)c2ccccc12 | 13.1
10 | CCCNC(=S)Nc1ccc(S(N)(=O)=O)cc1 | 18.2
11 | COC(=O)c1cc(COc2ccc3ccc(=O)oc3c2)c(C)o1 | 21.2
12 | COc1ccccc1-c1nnc(NC(=O)c2ccc3ncsc3c2)o1 | -9.39
13 | O=C(c1cccc(F)c1)N1CCN(C(=O)c2cc(-c3ccc(Cl)cc3Cl)on2)CC1 | -22.2
14 | CCOc1cc(C2NC(=O)NC(C)=C2C(=O)OCC2CCCCC2)ccc1O (stereo not shown) | 7.07
15 | O=C(NCc1ccncc1)c1ccccc1Nc1ccc(SC(F)F)cc1 | -63.9
16 | Cc1ccc(N2C(=O)C3C4C=CC(CNC(=S)N5CCN(c6ccccc6)CC5)(O4)C3C2=O)cc1 (stereo not shown) | 8.77
17 | CCOc1ccc2oc(C(=O)N(C)CC(=O)Nc3ccc(OCC)c(OCC)c3)c(C)c2c1 | -44.2
18 | COCCCn1cc(C(=O)c2ccccc2OCC(=O)Nc2cccc(F)c2)cc(C#N)c1=O | -35.9
19 | CCOc1ccc(CCNS(=O)(=O)c2ccc3c(c2)N(C(C)=O)CCO3)cc1OCC | 3.84
20 | CCCc1cc(=O)n2[nH]c(NCc3ccccc3F)nc2n1 | 12.4
21 | Cc1ccc(O)c(NC(=O)c2cc(-c3cccs3)on2)c1 | 2.6
22 | O=S(=O)(Nc1nc2ccccc2nc1Cl)c1ccccc1 | 16.2

Row | Compound | hERG current change (%, negative = inhibition) at 10uM [%]
23 | O=C(c1cc2ccccc2o1)N1CCN(S(=O)(=O)c2cccs2)CC1 | -1.84
24 | COc1ccc(OC)c(S(=O)(=O)Nc2ccc3c(c2)C(=O)OC3)c1 | 14.1
25 | COCCCNc1nc2nonc2nc1N1CCN(Cc2cccc(C)c2)CC1 | -20
26 | Cc1nc2cc(NC(=O)c3ccco3)ccc2n1C | -0.994
27 | CCOC(=O)C1=C(N)OC(C)=C(C#N)C1c1ccco1 (stereo not shown) | 3.82
28 | COc1ccc(Cl)cc1C(=O)OCC(=O)NCc1cccs1 | -28.1
29 | CCn1c(-c2ccco2)n[nH]c1=S | 12
30 | COc1cc(C2C(C(=O)c3ccc(C)o3)=C(O)C(=O)N2c2cc(C)on2)cc(Br)c1O (stereo not shown) | 19.4
31 | O=C(COC(=O)CCC(=O)c1cccs1)Nc1ccc(Cl)cn1 | 5.94
32 | O=C(Nc1ccc2c(c1)OCO2)c1cnc2n(c1=O)CCS2 | -6.5
33 | COc1cc(C(=O)OCC(=O)Nc2c(F)cccc2F)cc(OC)c1C | 5.89
34 | O=C(O)Cn1cc(/C=C2/NC(=O)N(c3ccc(Cl)cc3)C2=O)c2ccccc21 | 12.9
35 | CN(C)S(=O)(=O)c1cccc(NC(=O)c2cc(-c3cccs3)nc3ccccc23)c1 | 3.99
36 | COc1ccccc1Nc1ncc(C(=O)Nc2ccc(OC)c(OC)c2)c2ccccc12 | 19.7
37 | Cc1cc2c(ncn2Cc2ccccc2)c([N+](=O)[O-])c1C | -20.2
38 | CC(=O)NC(c1ccccc1)c1cccnc1 (stereo not shown) | -5.09
39 | COc1cc(CNC2CCCCCCC2)c(Br)cc1OCCO.Cl | 7
40 | N#CCCN1CCN(C(=S)c2ccc(-c3cccc(Cl)c3)o2)CC1 | -59.9
41 | CC(C)(C)c1cc(C(=O)N2CCc3ccccc32)ccn1 | 1.48
42 | Cc1c(C)c(C)c(S(=O)(=O)NCCc2ccncc2)c(C)c1C | 7.61
43 | CCCCn1c(N)c(N(Cc2ccccc2OC)C(=O)COc2ccc(C)cc2)c(=O)[nH]c1=O | 0.355
